# Source: the supplement of paper PMC4604168 (melanoma cell lines)
# The other results are listed elsewhere or left out. Repeats are few or missing, and single values can be far off.
# Test system: A2058
# Experiment: cell count relative to DMSO control; melanoma cells; higher = more viable cells
# Details: library dose: low library concentration; 72 h
# 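Note: cell number obtained by counting DAPI-stained nuclei in high-throughput microscope images with image analysis software, screen run in 1,536-well plates.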
row,SMILES,cell count
1,"NC1(c2ccc(-c3nc4ccn5c(=O)[nH]nc5c4cc3-c3ccccc3)cc2)CCC1 + COC(=O)c1sccc1S(=O)(=O)Nc1ccc(Nc2ccccc2)cc1OC [GSK0660] (first compound 0.4 µM, partner dose 1 µM)",83.1%
2,"CCCS(=O)(=O)Nc1ccc(F)c(C(=O)c2c[nH]c3ncc(Cl)cc23)c1F + O=C(O)C(=O)Nc1sc2c(c1C(=O)O)CCNC2 [TCS401] (first compound 0.08 µM, partner dose 1.66667 µM)",103%
3,"CS(=O)(=O)c1ccc(C(=O)Nc2ccc(Cl)c(-c3ccccn3)c2)c(Cl)c1 [vismodegib] + O=C(O)C(=O)Nc1sc2c(c1C(=O)O)CCNC2 [TCS401] (first compound 1 µM, partner dose 1.66667 µM)",116%
4,"C=C(c1ccc(C(=O)O)cc1)c1cc2c(cc1C)C(C)(C)CCC2(C)C [Bexarotene] + N#Cc1c(O)c2c(-c3ccc(-c4ccccc4O)cc3)csc2[nH]c1=O [A769662] (first compound 2 µM, partner dose 2 µM)",103%
5,"C=C(c1ccc(C(=O)O)cc1)c1cc2c(cc1C)C(C)(C)CCC2(C)C [Bexarotene] + COc1ccc(-c2ccc3c(N4CCOCC4)nc(N4C[C@@H](C)O[C@@H](C)C4)nc3n2)cc1CO [KU0063794] (first compound 2 µM, partner dose 0.02 µM)",94.5%
6,"CCCS(=O)(=O)Nc1ccc(F)c(C(=O)c2c[nH]c3ncc(Cl)cc23)c1F + COc1ccc(COc2ccc(Cc3cnc(N)nc3N)cc2OC)cc1 [GW2580] (first compound 0.08 µM, partner dose 1 µM)",106%

# Test system: C32
# Experiment: as above
# Details: library dose: low library concentration; 72 h
row,SMILES,cell count
1,"C=C(c1ccc(C(=O)O)cc1)c1cc2c(cc1C)C(C)(C)CCC2(C)C [Bexarotene] + Cn1cc(/C=C2\C(=O)Nc3cccnc32)c2ccccc21 [GW441756] (first compound 2 µM, partner dose 0.4 µM)",96.2%
2,"NC1(c2ccc(-c3nc4ccn5c(=O)[nH]nc5c4cc3-c3ccccc3)cc2)CCC1 + CC(C)CCN1c2nc(Nc3cc(F)c(O)c(F)c3)ncc2N(C)C(=O)C1C [BID1870] (first compound 0.4 µM, partner dose 0.2 µM)",96.3%
3,"CS(=O)(=O)c1ccc(C(=O)Nc2ccc(Cl)c(-c3ccccn3)c2)c(Cl)c1 [vismodegib] + N#Cc1c(O)c2c(-c3ccc(-c4ccccc4O)cc3)csc2[nH]c1=O [A769662] (first compound 1 µM, partner dose 2 µM)",101%
4,"CN(c1ncccc1CNc1nc(Nc2ccc3c(c2)CC(=O)N3)ncc1C(F)(F)F)S(C)(=O)=O + COC(=O)c1sccc1S(=O)(=O)Nc1ccc(Nc2ccccc2)cc1OC [GSK0660] (first compound 0.08 µM, partner dose 1 µM)",83.2%
5,"CCCS(=O)(=O)Nc1ccc(F)c(C(=O)c2c[nH]c3ncc(Cl)cc23)c1F + COC(=O)c1sccc1S(=O)(=O)Nc1ccc(Nc2ccccc2)cc1OC [GSK0660] (first compound 0.08 µM, partner dose 1 µM)",86.1%
6,"NC1(c2ccc(-c3nc4ccn5c(=O)[nH]nc5c4cc3-c3ccccc3)cc2)CCC1 + COc1cc(N2CCC(N3CCN(C)CC3)CC2)ccc1Nc1ncc(Cl)c(Nc2ccccc2S(=O)(=O)C(C)C)n1 [NVP-TAE684] (first compound 0.4 µM, partner dose 0.08 µM)",105%
7,"CS(=O)(=O)c1ccc(C(=O)Nc2ccc(Cl)c(-c3ccccn3)c2)c(Cl)c1 [vismodegib] + CCN(CC)CCCCNc1ncc2cc(-c3cc(OC)cc(OC)c3)c(NC(=O)NC(C)(C)C)nc2n1 [PD173074] (first compound 1 µM, partner dose 0.1 µM)",110%
8,"CCCS(=O)(=O)Nc1ccc(F)c(C(=O)c2c[nH]c3ncc(Cl)cc23)c1F + N#Cc1c(O)c2c(-c3ccc(-c4ccccc4O)cc3)csc2[nH]c1=O [A769662] (first compound 0.08 µM, partner dose 2 µM)",84.8%
9,"CCCS(=O)(=O)Nc1ccc(F)c(C(=O)c2c[nH]c3ncc(Cl)cc23)c1F + COc1ccc2c(c1)CCC1C2CCC2(C)C(NCCCCCCN3C(=O)C=CC3=O)CCC12 [U73122] (first compound 0.08 µM, partner dose 0.4 µM)",83.4%
